Data reported in publication PMC9911399, “Two distinct binding modes provide the RNA-binding protein RbFox with extraordinary sequence specificity”.
Positions count from the first letter of the chain named. This is one part of the list.

T1: RBFOX1 RRM RbFoxmut (Fox-RRM*) (Homo sapiens, UniProt Q9NWB1 109-208, R118D;E147R;N151S;E152T)
T1 sequence: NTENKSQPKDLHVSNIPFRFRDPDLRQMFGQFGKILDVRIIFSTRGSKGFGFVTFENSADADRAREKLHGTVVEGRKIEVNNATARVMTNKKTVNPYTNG

B1: GCAAGCG (DNA:RNA)
RNA: GGGAGACCGGAAUUCAGAUUGUCCGCAAGCGUUAAAUCCCGUCGUAGCCACCA
DNA 1: CAATCTGAATTCCGGTCTCCC
DNA 2: TGGTGGCTACGACGGGATT
B2: AAUAGGG (DNA:RNA)
RNA: B1 RNA with G25A, C26A, A27U, C30G
DNA 1: CAATCTGAATTCCGGTCTCCC
DNA 2: TGGTGGCTACGACGGGATT
B3: UACCCUG (DNA:RNA)
RNA: B1 RNA with G25U, C26A, A27C, A28C, G29C, C30U
DNA 1: CAATCTGAATTCCGGTCTCCC
DNA 2: TGGTGGCTACGACGGGATT
B4: AACGGCC (DNA:RNA)
RNA: B1 RNA with G25A, C26A, A27C, A28G, G31C
DNA 1: CAATCTGAATTCCGGTCTCCC
DNA 2: TGGTGGCTACGACGGGATT
B5: CCUAAUA (DNA:RNA)
RNA: B1 RNA with G25C, A27U, G29A, C30U, G31A
DNA 1: CAATCTGAATTCCGGTCTCCC
DNA 2: TGGTGGCTACGACGGGATT
B6: UAAUUAU (DNA:RNA)
RNA: B1 RNA with G25U, C26A, A28U, G29U, C30A, G31U
DNA 1: CAATCTGAATTCCGGTCTCCC
DNA 2: TGGTGGCTACGACGGGATT
B7: CGUAACG (DNA:RNA)
RNA: B1 RNA with G25C, C26G, A27U, G29A
DNA 1: CAATCTGAATTCCGGTCTCCC
DNA 2: TGGTGGCTACGACGGGATT
B8: UCUACCG (DNA:RNA)
RNA: B1 RNA with G25U, A27U, G29C
DNA 1: CAATCTGAATTCCGGTCTCCC
DNA 2: TGGTGGCTACGACGGGATT
B9: GAAAUGC (DNA:RNA)
RNA: B1 RNA with C26A, G29U, C30G, G31C
DNA 1: CAATCTGAATTCCGGTCTCCC
DNA 2: TGGTGGCTACGACGGGATT
B10: AAUGGCG (DNA:RNA)
RNA: B1 RNA with G25A, C26A, A27U, A28G
DNA 1: CAATCTGAATTCCGGTCTCCC
DNA 2: TGGTGGCTACGACGGGATT
B11: UCCAAUC (DNA:RNA)
RNA: B1 RNA with G25U, A27C, G29A, C30U, G31C
DNA 1: CAATCTGAATTCCGGTCTCCC
DNA 2: TGGTGGCTACGACGGGATT
B12: CGCUGGG (DNA:RNA)
RNA: B1 RNA with G25C, C26G, A27C, A28U, C30G
DNA 1: CAATCTGAATTCCGGTCTCCC
DNA 2: TGGTGGCTACGACGGGATT
B13: GUAUAUU (DNA:RNA)
RNA: B1 RNA with C26U, A28U, G29A, C30U, G31U
DNA 1: CAATCTGAATTCCGGTCTCCC
DNA 2: TGGTGGCTACGACGGGATT
B14: GGGACGC (DNA:RNA)
RNA: B1 RNA with C26G, A27G, G29C, C30G, G31C
DNA 1: CAATCTGAATTCCGGTCTCCC
DNA 2: TGGTGGCTACGACGGGATT
B15: GCGUCCU (DNA:RNA)
RNA: B1 RNA with A27G, A28U, G29C, G31U
DNA 1: CAATCTGAATTCCGGTCTCCC
DNA 2: TGGTGGCTACGACGGGATT
B16: GUCUUCU (DNA:RNA)
RNA: B1 RNA with C26U, A27C, A28U, G29U, G31U
DNA 1: CAATCTGAATTCCGGTCTCCC
DNA 2: TGGTGGCTACGACGGGATT
B17: UUCCAUC (DNA:RNA)
RNA: GGGAGACCGGAAUUCAGAUUGUCCUUCCAUCUUAAAUCCCGUCGUAGCCACCA
DNA 1: CAATCTGAATTCCGGTCTCCC
DNA 2: TGGTGGCTACGACGGGATT
B18: GCUAAAA (DNA:RNA)
RNA: B1 RNA with A27U, G29A, C30A, G31A
DNA 1: CAATCTGAATTCCGGTCTCCC
DNA 2: TGGTGGCTACGACGGGATT
B19: CGUGCGU (DNA:RNA)
RNA: GGGAGACCGGAAUUCAGAUUGUCCCGUGCGUUUAAAUCCCGUCGUAGCCACCA
DNA 1: CAATCTGAATTCCGGTCTCCC
DNA 2: TGGTGGCTACGACGGGATT
B20: CCUACUC (DNA:RNA)
RNA: B19 RNA with G26C, G28A, G30U, U31C
DNA 1: CAATCTGAATTCCGGTCTCCC
DNA 2: TGGTGGCTACGACGGGATT
B21: UACGAGA (DNA:RNA)
RNA: B17 RNA with U26A, C28G, U30G, C31A
DNA 1: CAATCTGAATTCCGGTCTCCC
DNA 2: TGGTGGCTACGACGGGATT
B22: GGAUUGU (DNA:RNA)
RNA: B19 RNA with C25G, U27A, G28U, C29U
DNA 1: CAATCTGAATTCCGGTCTCCC
DNA 2: TGGTGGCTACGACGGGATT
B23: AAGUGUG (DNA:RNA)
RNA: B1 RNA with G25A, C26A, A27G, A28U, C30U
DNA 1: CAATCTGAATTCCGGTCTCCC
DNA 2: TGGTGGCTACGACGGGATT
B24: GGUAUCC (DNA:RNA)
RNA: B1 RNA with C26G, A27U, G29U, G31C
DNA 1: CAATCTGAATTCCGGTCTCCC
DNA 2: TGGTGGCTACGACGGGATT
B25: CUCACCU (DNA:RNA)
RNA: B19 RNA with G26U, U27C, G28A, G30C
DNA 1: CAATCTGAATTCCGGTCTCCC
DNA 2: TGGTGGCTACGACGGGATT
B26: GCCUGCG (DNA:RNA)
RNA: B1 RNA with A27C, A28U
DNA 1: CAATCTGAATTCCGGTCTCCC
DNA 2: TGGTGGCTACGACGGGATT
B27: AGCGCCU (DNA:RNA)
RNA: B19 RNA with C25A, U27C, G30C
DNA 1: CAATCTGAATTCCGGTCTCCC
DNA 2: TGGTGGCTACGACGGGATT
B28: GGAAACA (DNA:RNA)
RNA: B1 RNA with C26G, G29A, G31A
DNA 1: CAATCTGAATTCCGGTCTCCC
DNA 2: TGGTGGCTACGACGGGATT
B29: UGCGCAC (DNA:RNA)
RNA: B19 RNA with C25U, U27C, G30A, U31C
DNA 1: CAATCTGAATTCCGGTCTCCC
DNA 2: TGGTGGCTACGACGGGATT
B30: CGCCGGC (DNA:RNA)
RNA: B19 RNA with U27C, G28C, C29G, U31C
DNA 1: CAATCTGAATTCCGGTCTCCC
DNA 2: TGGTGGCTACGACGGGATT
B31: GGCGCUU (DNA:RNA)
RNA: B19 RNA with C25G, U27C, G30U
DNA 1: CAATCTGAATTCCGGTCTCCC
DNA 2: TGGTGGCTACGACGGGATT

target: T1, RBFOX1 RRM RbFoxmut (Fox-RRM*); assay: EMSA; HiTS-Eq, 1 nM pool, 10 min; buffer printed only for the single-RNA assays: 10 mM Tris pH 7.5, 150 mM NaCl, 3.4 mM EDTA, 0.001% NP-40, 30 C; conditions: tags: His6 N-terminal (pET28a); label: 5' 32P
In short: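 These values rest on relative association constants, computed from read-count changes of each RNA species versus the control reaction and normalised to the cognate motif. Reads came from free RNA recovered by 8% native PAGE after purified RbFox RRM (wild type or mutant) at increasing concentrations was equilibrated for 10 min in 50 µL with 1 nM of a 5′-radiolabelled pool with 7 randomized nucleotides and DNA-annealed flanks.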

| Binder | binding signal |
| --- | --- |
| B1 | 0.0753 KA relative to UGCAUGU |
| B2 | 0.0766 KA relative to UGCAUGU |
| B3 | 0.0716 KA relative to UGCAUGU |
| B4 | 0.145 KA relative to UGCAUGU |
| B5 | 0.0998 KA relative to UGCAUGU |
| B6 | 0.085 KA relative to UGCAUGU |
| B7 | 0.135 KA relative to UGCAUGU |
| B8 | 0.0834 KA relative to UGCAUGU |
| B9 | 0.072 KA relative to UGCAUGU |
| B10 | 0.134 KA relative to UGCAUGU |
| B11 | 0.0512 KA relative to UGCAUGU |
| B12 | 0.0695 KA relative to UGCAUGU |
| B13 | 0.143 KA relative to UGCAUGU |
| B14 | 0.0977 KA relative to UGCAUGU |
| B15 | 0.0776 KA relative to UGCAUGU |
| B16 | 0.165 KA relative to UGCAUGU |

| Binder | binding signal |
| --- | --- |
| B17 | 0.0845 KA relative to UGCAUGU |
| B18 | 0.0917 KA relative to UGCAUGU |
| B19 | 0.118 KA relative to UGCAUGU |
| B20 | 0.0423 KA relative to UGCAUGU |
| B21 | 0.0877 KA relative to UGCAUGU |
| B22 | 0.39 KA relative to UGCAUGU |
| B23 | 0.192 KA relative to UGCAUGU |
| B24 | 0.116 KA relative to UGCAUGU |
| B25 | 0.0924 KA relative to UGCAUGU |
| B26 | 0.172 KA relative to UGCAUGU |
| B27 | 0.0862 KA relative to UGCAUGU |
| B28 | 0.0775 KA relative to UGCAUGU |
| B29 | 0.0807 KA relative to UGCAUGU |
| B30 | 0.0729 KA relative to UGCAUGU |
| B31 | 0.0641 KA relative to UGCAUGU |
